The other results are listed elsewhere or left out.
Experiments:
Experiment in all cases: glycan array binding signal (z-score within array); higher = stronger binding
Conditions in all cases: glycan notation: IUPAC condensed, linker removed
[1] = target: Gal(b1-4)GlcNAc(b1-2)[Gal(b1-4)GlcNAc(b1-4)]Man(a1-3)[GlcNAc(b1-4)][Gal(b1-4)GlcNAc(b1-2)Man(a1-6)]Man(b1-4)GlcNAc(b1-4)GlcNAc
In short: (§1)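 Glycan array data came from 3228 arrays in the Consortium for Functional Glycomics database, and only arrays with an available protein sequence were kept. Glycan names were put into IUPAC-condensed notation, and columns mapping to the same glycan were averaged. The binding signal is a within-array Z-score, averaged across arrays of one protein sequence run at different concentrations or buffers and across linkers. A negative Z-score can be read as non-binding.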

[2] = target: Gal(b1-4)GlcNAc(b1-2)[Gal(b1-4)GlcNAc(b1-4)]Man(a1-3)[GlcNAc(b1-4)][Gal(b1-4)GlcNAc(b1-2)[Gal(b1-4)GlcNAc(b1-6)]Man(a1-6)]Man(b1-4)GlcNAc(b1-4)GlcNAc
In short: as §1

[3] = target: Gal(b1-4)GlcNAc(b1-2)[Gal(b1-4)GlcNAc(b1-6)]Man(a1-6)[Gal(b1-4)GlcNAc(b1-2)Man(a1-3)]Man(b1-4)GlcNAc(b1-4)GlcNAc
In short: as §1

[4] = target: Gal(b1-4)GlcNAc(b1-2)[Gal(b1-4)GlcNAc(b1-6)]Man(a1-6)[Gal(b1-4)GlcNAc(b1-2)Man(a1-3)]Man(b1-4)GlcNAc(b1-4)[Fuc(a1-6)]GlcNAc
In short: as §1

[5] = target: Gal(b1-4)GlcNAc(b1-2)[Gal(b1-4)GlcNAc(b1-6)]Man(a1-6)[GlcNAc(b1-4)][Gal(b1-4)GlcNAc(b1-2)Man(a1-3)]Man(b1-4)GlcNAc(b1-4)GlcNAc
In short: as §1

[6] = target: Gal(b1-4)GlcNAc(b1-2)[Gal(b1-4)GlcNAc(b1-6)]Man(a1-6)[GlcNAc(b1-4)][Gal(b1-4)GlcNAc(b1-2)[Gal(b1-4)GlcNAc(b1-4)]Man(a1-3)]Man(b1-4)GlcNAc(b1-4)[Fuc(a1-6)]GlcNAc
In short: as §1

[7] = target: Gal(b1-4)GlcNAc(b1-3)Gal(b1-3)GalNAc
In short: as §1

[8] = target: Gal(b1-4)GlcNAc(b1-3)Gal(b1-3)GlcNAc
In short: as §1

[9] = target: Gal(b1-4)GlcNAc(b1-3)Gal(b1-4)Glc
In short: as §1

[10] = target: Gal(b1-4)GlcNAc(b1-3)Gal(b1-4)GlcNAc
In short: as §1

[11] = target: Gal(b1-4)GlcNAc(b1-3)Gal(b1-4)GlcNAc(b1-2)Man(a1-3)[Gal(b1-4)GlcNAc(b1-3)Gal(b1-4)GlcNAc(b1-2)Man(a1-6)]Man(b1-4)GlcNAc(b1-4)GlcNAc
In short: as §1

[12] = target: Gal(b1-4)GlcNAc(b1-3)Gal(b1-4)GlcNAc(b1-2)Man(a1-3)[Gal(b1-4)GlcNAc(b1-3)Gal(b1-4)GlcNAc(b1-2)Man(a1-6)]Man(b1-4)GlcNAc(b1-4)[Fuc(a1-6)]GlcNAc
In short: as §1

[13] = target: Gal(b1-4)GlcNAc(b1-3)Gal(b1-4)GlcNAc(b1-2)[Gal(b1-4)GlcNAc(b1-3)Gal(b1-4)GlcNAc(b1-6)]Man(a1-6)[Gal(b1-4)GlcNAc(b1-3)Gal(b1-4)GlcNAc(b1-2)Man(a1-3)]Man(b1-4)GlcNAc(b1-4)GlcNAc
In short: as §1

[14] = target: Gal(b1-4)GlcNAc(b1-3)Gal(b1-4)GlcNAc(b1-2)[Gal(b1-4)GlcNAc(b1-3)Gal(b1-4)GlcNAc(b1-6)]Man(a1-6)[Gal(b1-4)GlcNAc(b1-3)Gal(b1-4)GlcNAc(b1-2)Man(a1-3)]Man(b1-4)GlcNAc(b1-4)[Fuc(a1-6)]GlcNAc
In short: as §1

[15] = target: Gal(b1-4)GlcNAc(b1-3)Gal(b1-4)GlcNAc(b1-3)Gal(b1-4)GlcNAc
In short: as §1

[16] = target: Gal(b1-4)GlcNAc(b1-3)Gal(b1-4)GlcNAc(b1-3)Gal(b1-4)GlcNAc(b1-2)Man(a1-3)[Gal(b1-4)GlcNAc(b1-3)Gal(b1-4)GlcNAc(b1-3)Gal(b1-4)GlcNAc(b1-2)Man(a1-6)]Man(b1-4)GlcNAc(b1-4)GlcNAc
In short: as §1

[17] = target: Gal(b1-4)GlcNAc(b1-3)Gal(b1-4)GlcNAc(b1-3)Gal(b1-4)GlcNAc(b1-2)Man(a1-3)[Gal(b1-4)GlcNAc(b1-3)Gal(b1-4)GlcNAc(b1-3)Gal(b1-4)GlcNAc(b1-2)Man(a1-6)]Man(b1-4)GlcNAc(b1-4)[Fuc(a1-6)]GlcNAc
In short: as §1

[18] = target: Gal(b1-4)GlcNAc(b1-3)Gal(b1-4)GlcNAc(b1-3)Gal(b1-4)GlcNAc(b1-2)[Gal(b1-4)GlcNAc(b1-3)Gal(b1-4)GlcNAc(b1-3)Gal(b1-4)GlcNAc(b1-6)]Man(a1-6)[Gal(b1-4)GlcNAc(b1-3)Gal(b1-4)GlcNAc(b1-3)Gal(b1-4)GlcNAc(b1-2)Man(a1-3)]Man(b1-4)GlcNAc(b1-4)[Fuc(a1-6)]GlcNAc
In short: as §1

[19] = target: Gal(b1-4)GlcNAc(b1-3)Gal(b1-4)GlcNAc(b1-3)Gal(b1-4)GlcNAc(b1-3)Gal(b1-4)GlcNAc(b1-2)Man(a1-3)[Gal(b1-4)GlcNAc(b1-3)Gal(b1-4)GlcNAc(b1-3)Gal(b1-4)GlcNAc(b1-3)Gal(b1-4)GlcNAc(b1-2)Man(a1-6)]Man(b1-4)GlcNAc(b1-4)GlcNAc
In short: as §1

B1: Gal 9 (Homo sapiens), O00182 (protein)
chain: MAFSGSQAPYLSPAVPFSGTIQGGLQDGLQITVNGTVLSSSGTRFAVNFQTGFSGNDIAFHFNPRFEDGGYVVCNTRQNGSWGPEERKTHMPFQKGMPFDLCFLVQSSDFKVMVNGILFVQYFHRVPFHRVDTISVNGSVQLSYISFQNPRTVPVQPAFSTVPFSQPVCFPPRPRGRRQKPPGVWPANPAPITQTVIHTVQSAPGQMFSTPAIPPMMYPHPAYPMPFITTILGGLYPSKSILLSGTVLPSAQRFHINLCSGNHIAFHLNPRFDENAVVRNTQIDNSWGSEERSLPRKMPFVRGQSFSVWILCEAHCLKVAVDGQHLFEYYHRLRNLPTINRLEVGGDIQLTHVQT
[1]
  glycan array binding signal (z-score): 3.62
[2]
  glycan array binding signal (z-score): -0.3
[3]
  glycan array binding signal (z-score): -0.249
[4]
  glycan array binding signal (z-score): -0.309
[5]
  glycan array binding signal (z-score): 3.87
[6]
  glycan array binding signal (z-score): -0.28
[7]
  glycan array binding signal (z-score): 0.352
[8]
  glycan array binding signal (z-score): 0.445
[9]
  glycan array binding signal (z-score): 0.606
[10]
  glycan array binding signal (z-score): 1.14
[11]
  glycan array binding signal (z-score): 1.43
[12]
  glycan array binding signal (z-score): 3.15
[13]
  glycan array binding signal (z-score): 0.18
[14]
  glycan array binding signal (z-score): 2.43
[15]
  glycan array binding signal (z-score): 0.893
[16]
  glycan array binding signal (z-score): 2.36
[17]
  glycan array binding signal (z-score): 3.51
[18]
  glycan array binding signal (z-score): 2.76
[19]
  glycan array binding signal (z-score): 1.11

Reference: the supplement of paper PMC8728848
